According to PMC4336329 (PLoS ONE, 2015):
Screen size: about 310,000 compounds; about 2,200 (0.71%) showed an effect of 50% or more. Effects have a minus sign here. The list shows a part of the results.

molecular target: human ether-à-go-go-related gene (hERG) potassium channel (human, UniProt Q12809); assay: primary screen, population patch clamp on CHO cells stably expressing hERG
Sequence (Q12809 whole entry, looked up): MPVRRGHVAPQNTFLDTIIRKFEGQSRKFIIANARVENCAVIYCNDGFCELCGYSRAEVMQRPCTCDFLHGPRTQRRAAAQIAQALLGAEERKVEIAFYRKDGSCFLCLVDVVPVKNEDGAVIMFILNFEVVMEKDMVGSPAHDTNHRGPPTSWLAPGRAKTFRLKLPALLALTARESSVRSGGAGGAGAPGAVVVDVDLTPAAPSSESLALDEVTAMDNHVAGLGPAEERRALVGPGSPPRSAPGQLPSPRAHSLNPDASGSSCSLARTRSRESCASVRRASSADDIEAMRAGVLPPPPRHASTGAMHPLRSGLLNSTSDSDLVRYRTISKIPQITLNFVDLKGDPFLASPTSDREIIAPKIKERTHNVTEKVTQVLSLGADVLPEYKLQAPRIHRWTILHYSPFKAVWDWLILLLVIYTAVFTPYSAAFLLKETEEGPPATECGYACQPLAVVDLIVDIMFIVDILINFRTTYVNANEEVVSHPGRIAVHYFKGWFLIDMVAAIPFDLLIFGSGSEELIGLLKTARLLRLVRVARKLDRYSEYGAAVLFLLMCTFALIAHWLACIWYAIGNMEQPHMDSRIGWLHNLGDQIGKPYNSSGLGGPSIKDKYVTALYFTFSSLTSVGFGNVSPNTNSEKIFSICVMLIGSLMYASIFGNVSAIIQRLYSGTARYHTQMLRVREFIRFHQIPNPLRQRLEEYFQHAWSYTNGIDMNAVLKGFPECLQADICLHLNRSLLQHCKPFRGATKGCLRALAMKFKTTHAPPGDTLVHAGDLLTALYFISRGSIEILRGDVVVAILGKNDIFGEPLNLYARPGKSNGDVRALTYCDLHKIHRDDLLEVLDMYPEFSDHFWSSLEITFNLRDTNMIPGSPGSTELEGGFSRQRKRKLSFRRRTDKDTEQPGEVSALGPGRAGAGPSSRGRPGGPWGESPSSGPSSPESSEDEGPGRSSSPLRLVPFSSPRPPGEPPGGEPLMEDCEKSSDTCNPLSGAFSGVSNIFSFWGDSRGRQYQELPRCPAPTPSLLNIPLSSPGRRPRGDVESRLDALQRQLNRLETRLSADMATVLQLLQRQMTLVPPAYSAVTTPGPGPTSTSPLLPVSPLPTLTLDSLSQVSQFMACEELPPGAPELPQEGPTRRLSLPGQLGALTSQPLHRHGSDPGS

Structure (SMILES) | hERG current change (%, negative = inhibition) at 1uM [%]
NS(=O)(=O)c1ccc(CNC(=S)NC2CC2)cc1 | 2.93
O=C(NNC(=O)C1CCCO1)c1ccc(Br)cc1 (stereo not shown) | 8.75
CC(=O)c1ccccc1NC(=O)COC(=O)CCCN1C(=O)c2cccc3cccc(c23)C1=O | 9.14
COc1cc(-c2nnc3sc(-c4cccs4)nn23)cc(OC)c1OC | 2.06
O=C(CSc1nc(O)c(-c2ccccc2)c(=O)[nH]1)N1CCOCC1 | 8.84
COc1ccc(NC(=O)C(=O)NNC(=O)C(C)Oc2ccc(Cl)cc2Cl)cc1 (stereo not shown) | 14.2
Cc1ccc(C(=O)OCC(=O)N2CCOCC2)cc1 | 11.9
O=C1/C(=C\c2ccncc2)SC(=S)N1C1CCCCC1 | 1.21
C/C(=N\NC(=O)C1(C)CC1(Br)Br)c1cccc(NC(=O)c2ccc(C)o2)c1 (stereo not shown) | 11.8
CC(C)n1c(C(F)(F)F)nc2cc(C(=O)N3CCC(O)CC3)ccc21 | 17.1
CN(C)S(=O)(=O)n1cc(/C=C(\NC(=O)c2ccccc2Cl)C(=O)NCCCn2ccnc2)c2ccccc21 | 9.81
COc1cc(/C=N/NS(=O)(=O)c2ccc(C)cc2)ccc1OCc1cccc(C(=O)O)c1 | 11.4
CC(OC(=O)c1ccc2ccccc2c1)C(=O)N(C)Cc1ccccc1 (stereo not shown) | 0.498
O=C1CC(c2cc(-c3ccccc3)no2)C1 | 2.75
O=C(NC1CCCCC1)C(c1ccc(F)cc1)N(C(=O)c1cccs1)c1ccc2c(c1)OCO2 (stereo not shown) | 12.5
Cc1cc2oc(=O)sc2cc1NS(=O)(=O)c1cccc2cccnc12 | 14.4
CCc1cc(CNC(=O)CC2C(=O)NCCN2CC2CCCCC2)on1 (stereo not shown) | 6.71
CC(=O)Nc1ccc(NC(=O)CSc2nnc(C)c(=O)[nH]2)cc1 | 9.02
COc1ccc(NC(=O)CN(C)S(=O)(=O)c2ccc3c(c2)n(C)c(=O)c(=O)n3C)cc1 | 4.25
CC(=O)c1cccc(NC(=O)C(C)OC(=O)CCn2c(C)csc2=O)c1 (stereo not shown) | 17.4

Structure (SMILES) | hERG current change (%, negative = inhibition) at 1uM [%]
O=C(NCC(c1ccco1)N1CCCC1)c1cc2ccccc2s1 (stereo not shown) | 9.59
C/C(N)=C(/C#N)C(=O)CSc1nnc(-c2ccccc2Br)o1 | 12.3
COc1cc(C2c3c(oc4ccccc4c3=O)C(=O)N2Cc2ccco2)ccc1O (stereo not shown) | -6.01
COCCN(Cc1ccccc1)C(=O)Cc1ccc(OC)c(S(=O)(=O)N2CCOCC2)c1 | -7.01
CCC(C)(C)n1nnnc1C(c1ccc(OC)c(OC)c1)N1CCN(c2ccccc2)CC1 (stereo not shown) | 12.7
CN(CC(=O)Nc1cccc(F)c1)C(=O)CSc1ccccc1F | 10.5
OCCC1CN(Cc2cccc3c2OCO3)CCN1Cc1ccccc1 (stereo not shown) | 7.11
C=CCn1cnc2scc(-c3ccc(CC)cc3)c2c1=O | 7.3
Cc1ccc(CN2CCNC(=O)C2CC(=O)N(C)C2CCOCC2)cc1 (stereo not shown) | 1.47
O=C(NC(Cc1c[nH]c2ccccc12)C(=O)O)/C(=C\c1ccccc1)NC(=O)c1ccccc1 (stereo not shown) | 7.98
COC(=O)C1(CCSC)NC(c2ccco2)C2C(=O)N(C)C(=O)C21 (stereo not shown) | 8.09
CCOc1ccc(C(=O)NCc2cccnc2)cc1 | 6.51
COc1ccc(C2C(C#N)=C(N)Oc3cc(C)[nH]c(=O)c32)cc1OC (stereo not shown) | 5.65
COc1cc2c(cc1NC(=O)C(C)Sc1nc3ccccc3n1C)oc1ccccc12 (stereo not shown) | 10.3
OCCC1CN(Cc2cccn2-c2cccnc2)CCN1Cc1ccccc1 (stereo not shown) | -7.57
CCOc1ccc(S(=O)(=O)N2CCN(C(=O)c3sccc3C)CC2)cc1 | -8.01
O=C(Nc1ccccc1N1CCCCC1)c1ncoc1-c1cccc(F)c1 | 11.8
O=S1(=O)CCN(Cc2cccc(C(F)(F)F)c2)CC1 | 16.1
COCCN1CSC(=S)N(Cc2ccco2)C1 | 2.83
CCc1ccc(C(=O)NNC(=O)c2c(CC)noc2C)cc1 | 9.37

Structure (SMILES) | hERG current change (%, negative = inhibition) at 1uM [%]
O=c1sc2ccccc2n1COc1ccc(Cl)cc1 | 8.2
O=C(NN=C(Cc1ccccc1)Cc1ccccc1)c1ccc(F)cc1 | -3.99
CC(C)c1ccc(N(CC(=O)NCc2cccnc2)S(=O)(=O)c2ccccc2)cc1 | 5.61
Cl.OC12CC3C[C@H](C1)C(N1CCOCC1)[C@@H](C3)C2 (stereo partly shown) | 14.2
O=C(CN1N=C(c2ccc(Cl)cc2)CCC1=O)NCc1cccnc1 | -1.03
CCOC(=O)C1CCCN(C(=O)c2cncc(Br)c2)C1 (stereo not shown) | 8.44
CCc1ccc(CN2CCC(n3nccc3NC(=O)C3CCCC3)CC2)cc1 | -68.2
CCOCCn1c(=O)c2c(nc3n2CCN3c2ccc(C)cc2)n(C)c1=O | 12.2
COc1ccc(-n2cc(C(=O)c3ccccc3O)cn2)cc1 | 13.2
CC1CN(CC(=O)NCc2ccccc2)CC(C)O1 (stereo not shown) | 19.2
O=Cc1ccccc1-c1cn(CCCOCc2ccccc2)nn1 | 12.1
COc1ccc(C(=O)NNC(=O)C2CCCO2)cc1 (stereo not shown) | 19.7
CC1(C)CC(=O)C=C(NCCN2CCN(C(=O)Cc3ccc(Cl)cc3)CC2)C1 | 12.1
COc1ccc(NC(=O)CNC(=O)Cc2ccccc2)cc1 | 17.5
O=C(Nc1ccccc1Br)c1c(F)cccc1Cl | 9.18
O=C(c1ccco1)N1CCN(C(=O)C2CCCO2)CC1 (stereo not shown) | 13.4
COC(=O)c1sc(N)c(C(=O)OC)c1Cn1ncc(Cl)c(Cl)c1=O | 2.21
Nn1c(Cc2cccc3ccccc23)nnc1SCCOc1ccc(Br)cc1 | 7.42
